Measurements: the supplement of paper PMC3334620
The full ranking holds about 33,000 sequences; the median of “E-score (-0.5 to 0.5)” is about -0.013, and the highest 2% start at about 0.3. The list shows a part of the results.

Molecular target: T1, Msn1 (UniProt P22148)
T1 sequence: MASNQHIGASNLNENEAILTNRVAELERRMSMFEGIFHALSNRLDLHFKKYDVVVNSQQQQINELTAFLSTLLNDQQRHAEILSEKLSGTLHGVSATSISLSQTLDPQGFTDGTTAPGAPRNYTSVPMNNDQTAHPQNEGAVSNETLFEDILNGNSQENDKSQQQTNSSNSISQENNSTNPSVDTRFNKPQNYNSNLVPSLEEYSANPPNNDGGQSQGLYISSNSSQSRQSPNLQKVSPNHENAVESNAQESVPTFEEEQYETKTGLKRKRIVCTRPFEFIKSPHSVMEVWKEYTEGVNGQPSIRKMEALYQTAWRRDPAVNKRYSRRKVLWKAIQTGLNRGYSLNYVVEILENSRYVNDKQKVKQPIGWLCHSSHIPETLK
Experiment: PBM E-score (8-mer binding enrichment) (E-score (-0.5 to 0.5)); higher = stronger / more preferred TF binding; most listed sequences are background and not binding sites
Settings: protein concentration: 200 nM; construct: GST-full length
Procedure: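 Universal 'all 10-mer' protein binding microarrays (Agilent AMADID 015681) probed with GST-tagged S. cerevisiae TFs (full-length or DBD) made by in vitro transcription/translation (PURExpress), about 100-200 nM. Bound TF was detected with fluorescent anti-GST. Each ungapped 8-mer (which stands for itself and its reverse complement) is scored by the PBM enrichment score (E-score), a modified Wilcoxon-Mann-Whitney statistic from -0.5 to +0.5, computed with the Universal PBM Analysis Suite. Scale: above 0.35 generally sequence-specific binding.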

Sequence	PBM E-score
AACAAGTG	-0.0369
AGGAGATC	-0.00189
AGCCTTAA	0.00365
GGTTAGCA	-0.0578
GGCATCCA	-0.126
CCGAGGTA	0.121
GAATTCAA	0.0554
AAAAATGC	0.0785
GAAGCTTC	-0.0961
CTATTCGA	0.14
CTTGCCGC	-0.111
CAAAGTCA	0.0661
AGATGCAC	-0.243
ACTGAAAG	0.149
GGTGTCCA	0.352
CCAGCGTA	-0.121
CCCTTGGA	-0.0474
GCGTTTCA	0.0438
CGTTACAC	-0.104
ATTACACC	0.0147
CTACGCAC	-0.0808
CTACTTAC	-0.104
CATCTGAC	0.0663
AACTATCC	-0.0648
AATTCTGT	0.0506

Sequence	PBM E-score
AACAATTA	0.165
GGTGGGAC	0.0174
GCCGAACC	-0.0128
AGCTATGC	-0.342
CAATGGCA	0.0114
AGCCGGGG	-0.291
CACATAGC	-0.0496
CCAGTACC	0.0169
GAGTAGTA	-0.0474
CCTACCCG	-0.122
AATCCGCG	-0.0338
CGATCGAA	0.019
ATGGCGCA	-0.0464
ACTATTTA	0.148
ACAGATCG	-0.0258
CTGCACGC	-0.253
AAGCCTAG	-0.0264
ATCTGTTG	-0.0313
TGAGACCA	-0.0631
CACGTTAA	0.0389
AGCTGCGG	-0.201
GCGCTATA	-0.036
CTTAACAA	0.18
GAAACCCA	0.111
AGTCCCGG	-0.0481

Sequence	PBM E-score
AAAGCTCA	-0.113
AGACAATC	0.359
AGGATGAA	-0.174
ATGGGCAC	-0.0088
GAGCGGGC	-0.253
ACAATGGG	0.196
GCGCTCAC	-0.117
CGTCTGTA	0.0585
AGTATAAA	0.203
CCCGACAA	0.329
TACCGGAA	0.198
CTCGGTAC	0.0483
CCCGCGTA	-0.123
CTAGGACC	-0.0875
AGTAGAGA	-0.0748
GCGACTCA	-0.154
GGAACAAA	0.274
GAAAATTA	0.0395
CAGGCTCG	-0.0345
TCACGTGA	0.203
CTAACTAC	-0.0627
GTCCCAAA	0.266
CATTTGAC	0.0237
GTAGGACA	0.479
CCGACGGA	0.00794

Sequence	PBM E-score
ACGGCAAT	0.216
CTTGAGCA	-0.157
GCTTACTA	-0.184
ACAACGGG	0.161
AGAATCAC	-0.0955
CCACGTCG	-0.041
CCAGGCTA	-0.295
CGACTAGA	-0.117
ACTCACCG	-0.0883
CTCGTGCA	-0.109
CGGAATCC	-0.039
AATCCATA	0.0862
CGCGATAC	-0.0393
CGTAGGAC	0.132
CCTTTCTA	0.0109
GACACAAA	0.395
ACCAGGAC	0.329
ACAAGAAA	0.197
AGAATGAG	0.0238
AGGCGAGA	-0.196
CGTTGACC	-0.00754
CAGCTGGC	-0.125
CCAATGGA	-0.0809
GAAGCATC	-0.28
CTGGAACC	-0.181

Sequence	PBM E-score
AGTCAGAT	0.113
AACCAGCT	0.138
CTTAACGC	-0.0673
ACCCCAGG	-0.231
AGGCTATG	-0.204
GAGTTAAC	-0.0585
CCAGGCGC	-0.147
CGTGATTA	0.073
ACGACGAC	-0.107
CAGTGCGC	-0.153
ATGTGTAA	0.0748
GCTCGTCC	0.133
GAACATCA	-0.0434
GCCCTATA	-0.0935
ATCCGGCC	-0.0763
CTTGACAC	-0.143
ACGTGCGC	0.0162
TAAAAAGA	0.114
TTCCCAAA	0.0993
CAACGCCA	-0.171
CATGCTGA	-0.00885
CATACTGG	0.055
GTTCTGTA	0.0648
ATACGAGC	0.0618
AGAACATA	0.167

Sequence	PBM E-score
ACTTCAGG	0.00294
AAGGAACG	-0.0472
ATCATACG	0.112
AGCCGCCG	-0.0663
ATACTGAA	-0.0679
AACACCTG	0.0646
CTCACGAC	-0.0565
CCCAAAAG	0.0389
AAGGCTGG	-0.253
AGTGGAGA	-0.029
ATAGGGGG	-0.358
ATAGTGGC	-0.0472
TACGCGCA	0.0872
AATACTCA	0.175
ACGACAGT	-0.047
GTCCCAGA	0.0675
AGTCTGGC	-0.139
CGAACATC	0.13
CCTCAGAG	-0.291
CCCGTGCA	-0.3
AGGTGTGC	-0.223
ACATTATG	0.282
AGCCTTAG	-0.0844
GATTGAAA	0.149
CTAGTATC	0.0387

Sequence	PBM E-score
ACATGTTA	0.199
AACATACT	0.00863
CATAAGCA	-0.0443
TAACACCA	0.021
CGACGCTA	-0.0168
CTATATGC	0.0574
CCGATAAG	0.108
GATCTAGC	-0.225
AGCCGAGG	0.103
AATTTGAA	0.0911
TCTCGAGA	0.259
AGATCAAT	-0.0557
AGGTCTAT	-0.0519
GCTTATAA	-0.0204
ACCGCAGA	-0.183
GGTGAAAC	0.00076
AGTAAGAC	0.085
GTACGAGA	0.132
TCAGATCA	0.0578
ACATGACC	0.0733
CTTTTATC	0.0809
GAAACTCC	-0.249
ATTTCGAA	0.204
CTTGTCCC	0.47
CAGGCGAC	-0.0799

Sequence	PBM E-score
AATGCTAA	0.0423
AGCAAAGG	-0.0218
GGCGATTA	-0.0902
AGTGTGGG	-0.193
GGTTAAGA	0.0564
ACGCAGAG	0.0356
GCCGTCGC	-0.0331
CTATCTGA	-0.12
CGATTTCC	0.0472
CAGGTCAC	-0.313
TAATCTGA	-0.0016
ACGCTTTA	-0.013
CCCACCGA	-0.265
GGCAGATA	-0.149
ACGCTAAG	-0.0746
GGACAGGA	0.299
ATCACGAT	-0.118
GTAGTACA	0.167
GTGTGAAA	0.212
ATCGAAGG	-0.0113
GTCCCACA	0.319
AGTAACTC	-0.00301
AACTTGAG	-0.212
ATGTGCTA	-0.0878
CGACCATC	-0.232

Sequence	PBM E-score
CATCCACA	0.129
CGGTATTC	0.101
CCAGATAG	-0.057
AAAGTTAT	0.193
GGTATGAA	0.00327
AAGATTGC	0.0886
CTGCGTGA	-0.00745
GGGTTGCA	-0.0668
ATTATATC	-0.074
CATGCACC	-0.0246
CTCGAGTC	0.12
GAGCCCAA	-0.121
ATGGAGAC	0.172
ATCTCGTA	0.0247
GCTAGCTA	-0.149
CGAGGTGC	0.0666
AACGGAGT	0.0569
ACGTAAGC	-0.13
TACTAGAA	0.044
GGTTAGAA	-0.307
CAAGGGTC	-0.107
GGCTCTAA	0.033
AGCAAATA	0.0897
CAGCCATG	-0.121
CGTAACGC	0.00743

Sequence	PBM E-score
CCCGCTTA	-0.0594
GCAGCTCC	-0.283
AGGTCAAG	0.0391
CGAAATAC	0.116
GTTGCGTA	0.0763
AAGCTATA	-0.0816
AATCACGA	-0.0922
CAACAGTC	-0.0198
CGGTTTCC	0.138
CTCGTATC	0.0707
AGGTACAT	0.266
CCCTAGGA	-0.0892
ATGGTCCA	-0.0274
GACATCGC	0.273
ATAAGGTG	0.133
TCGGACAA	0.457
TTAGATAA	0.0312
CGTGCATA	0.136
GAATTATC	-0.0192
CCCCATCC	-0.2
CACAAAAC	0.0522
CTGTCTGA	0.0827
ATGTCCGC	0.44
TCTGTCAA	0.0509
TGAGCAAA	0.0396

Sequence	PBM E-score
AGAACGCA	-0.0363
TCGATCAA	0.00802
AGTGCTAC	-0.0814
CCAAGGAC	0.16
CAAGCTGC	-0.114
CAATAACA	0.0401
AGAATTGC	0.04
ACAGACAC	0.288
GCTCATCA	-0.031
CCTACATC	-0.00686
GCCATCCC	-0.373
CGTGCTTA	-0.0897
ACTATTCT	0.0295
AGTTGACA	0.206
CCGGCGTC	-0.13
ACCGCATA	0.0316
CTCGCGTC	0.0566
CAATATAC	0.0211
ACACCGAT	0.0423
ACCCCAAT	-0.0661
AGTCAGTC	-0.0159
GAGCTAAC	-0.149
AATTCCGG	0.2
ACTCAACC	-0.0917
GCCGGCCA	0.0673

Sequence	PBM E-score
CCCATCCA	-0.137
CGATGCCG	-0.142
CGAGCGGC	0.0136
CAAAGCAA	0.141
ATCCTATC	-0.0721
GTGAGACA	0.315
GCCAAACC	-0.192
ATAGGAAA	0.0636
AGTCCTTC	-0.121
GCTCCTCA	-0.38
ATAATTTC	0.106
AGTCAGTA	0.0349
TATACTCA	0.0163
CCGAAGAA	0.13
ACGAACCC	-0.313
AAGCGGTA	0.00644
ACGCGAGG	0.0738
CCTCTATC	-0.164
AGTGTCAT	0.112
AAGATAAA	0.267
GCTTCACC	-0.178
CTCATCAG	-0.046
TCTCCCAA	-0.0533
ATGTTTAG	0.122
AGGATTTA	0.0902

Sequence	PBM E-score
AGGACCGA	-0.0701
CAGCGTGA	-0.039
GACGAAAC	0.162
ACATTCCC	0.274
ATACCCAC	-0.0338
ATTCGACG	0.0794
AGTGTGGA	-0.0579
TATTCAAA	0.202
ACTATGGC	-0.195
AGGTTTGC	-0.124
GGTGCGCA	-0.0546
GCGCGCGA	0.0948
ACAGATGT	0.0399
AGTCGACT	0.154
ACTTGGAG	-0.123
CAAATTTA	0.15
CATGCGAC	0.0575
ACTCGTCC	0.18
GAGCACAA	-0.112
CCGCCGCC	-0.201
AATTGGAG	-0.00784
GCAAGCAA	-0.105
GATCGTGC	0.105
CTTCGAAG	-0.0759
GAAAAGCA	0.0243

Sequence	PBM E-score
CACCAGAC	0.00954
GCACTGGC	-0.208
AACGGTAG	0.0263
ATGCTTAC	-0.191
CCACCGCA	-0.233
TACATTCA	0.0713
CCTTCCGA	-0.182
GGTTTTAC	-0.222
CCCGCGCA	-0.0768
TGACGACA	0.245
TACAGACA	0.371
AGTTTCAT	0.12
ACGCAAAA	0.0433
CCCCTACA	-0.236
GCAGCATA	-0.0938
CGCCTCGA	-0.0954
ATCCTCAG	0.132
AACAAAGC	-0.00117
AAGGAAGT	-0.0916
